Source: a collection of fitness landscapes (doi:10.1016/j.celrep.2020.107928)
In all, about 81,000 sequences were measured (“one-hybrid fitness for binding NBS DNA”: median about -0.1, highest 2% from about 0.36 on). This is one part of the list.

B1: Caulobacter ParB omega fusion; a variant is named by its letters at X, in order, B8GW30 (parent)
chain: MESVVVGEPGMSEGRRGLGRGLSALLGEVDAAPAQAPGEQLGGSREAPIEILQRNPDQPRRTFREEDLEDLSNSIREKGVLQPILVRPSPDTAGEYQIVAGERAWRAAQRAGLKTVPIMVRELDDLAVLEIGIIENVQRADLNVLEEALSYKVLMEKFERTQENIAQTIGKSXSHVANXMRLLXLPDEVQSYLVSGELTAXHARAIAAAADPVALAKQIIEGGLSVRETEALARKAPNLSAGKSKGGRPPRVKDTDTQALESDLSSVLGLDVSIDHRGSTGTLTITYATLEQLDDLCNRLTRGI

Variants of: B1
Assay: one-hybrid fitness for binding NBS DNA (the Noc-binding site; scaled: cognate 1, non-cognate 0); higher = stronger binding
Conditions: with NBS DNA site
Outline: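 Pre- and post-selection plasmids were Illumina-sequenced, three replicate libraries were pooled, and any variant with under 10 reads was removed. The libraries were Caulobacter ParB with four specificity codons randomised, selected in E. coli USO through a HIS3 reporter whose site is 19 bp from the promoter. Cells grew 48 hours at 37°C on M9 without histidine, with 0.1 mM IPTG and 5 mM 3-AT. Fitness is the log change in variant-to-wild-type read ratio, rescaled against cognate and non-cognate.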

ACHR and YRPG cannot be ordered by “one-hybrid fitness for binding NBS DNA” value: ≤ 0.2 for the first, ≤ 0.2 for the second.

NPQR and HRYQ cannot be ordered by “one-hybrid fitness for binding NBS DNA” value: ≤ 0.2 for the first, ≤ 0.2 for the second.

LKSM and EGLS cannot be ordered by “one-hybrid fitness for binding NBS DNA” value: ≤ 0.2 for the first, ≤ 0.2 for the second.

LAHI and YQEY cannot be ordered by “one-hybrid fitness for binding NBS DNA” value: ≤ 0.2 for the first, ≤ 0.2 for the second.

KIST and LDAI cannot be ordered by “one-hybrid fitness for binding NBS DNA” value: ≤ 0.2 for the first, ≤ 0.2 for the second.

TSEL and NPGT cannot be ordered by “one-hybrid fitness for binding NBS DNA” value: ≤ 0.2 for the first, ≤ 0.2 for the second.

VNKG and EISS cannot be ordered by “one-hybrid fitness for binding NBS DNA” value: ≤ 0.2 for the first, ≤ 0.2 for the second.

AHLR and NLLI cannot be ordered by “one-hybrid fitness for binding NBS DNA” value: ≤ 0.2 for the first, ≤ 0.2 for the second.

EKPW and QHCN cannot be ordered by “one-hybrid fitness for binding NBS DNA” value: ≤ 0.2 for the first, ≤ 0.2 for the second.

GDAP and RHEM cannot be ordered by “one-hybrid fitness for binding NBS DNA” value: ≤ 0.2 for the first, ≤ 0.2 for the second.

PHGQ and TFTN cannot be ordered by “one-hybrid fitness for binding NBS DNA” value: ≤ 0.2 for the first, ≤ 0.2 for the second.

VRQF and HSNF cannot be ordered by “one-hybrid fitness for binding NBS DNA” value: ≤ 0.2 for the first, ≤ 0.2 for the second.

ISNM and GHHW cannot be ordered by “one-hybrid fitness for binding NBS DNA” value: ≤ 0.2 for the first, ≤ 0.2 for the second.

VRKQ and SCTP cannot be ordered by “one-hybrid fitness for binding NBS DNA” value: ≤ 0.2 for the first, ≤ 0.2 for the second.

First: NIIF
Second: KRCT
The “one-hybrid fitness for binding NBS DNA” value of the first is lower: ≤ 0.2 for the first, 0.558 for the second.

TGTV and KRLD cannot be ordered by “one-hybrid fitness for binding NBS DNA” value: ≤ 0.2 for the first, ≤ 0.2 for the second.

AIGS and RFHH cannot be ordered by “one-hybrid fitness for binding NBS DNA” value: ≤ 0.2 for the first, ≤ 0.2 for the second.

GETL and TMYS cannot be ordered by “one-hybrid fitness for binding NBS DNA” value: ≤ 0.2 for the first, ≤ 0.2 for the second.

Compared with QHHS, MRFR is lower in “one-hybrid fitness for binding NBS DNA” value: 0.386 for the first, ≤ 0.2 for the second.

PEQS and TCQE cannot be ordered by “one-hybrid fitness for binding NBS DNA” value: ≤ 0.2 for the first, ≤ 0.2 for the second.

HWSM and VEES cannot be ordered by “one-hybrid fitness for binding NBS DNA” value: ≤ 0.2 for the first, ≤ 0.2 for the second.

PLCT and KSNV cannot be ordered by “one-hybrid fitness for binding NBS DNA” value: ≤ 0.2 for the first, ≤ 0.2 for the second.

QLWM and CLSN cannot be ordered by “one-hybrid fitness for binding NBS DNA” value: ≤ 0.2 for the first, ≤ 0.2 for the second.

NSDR and WTSL cannot be ordered by “one-hybrid fitness for binding NBS DNA” value: ≤ 0.2 for the first, ≤ 0.2 for the second.

YSQR and TMCY cannot be ordered by “one-hybrid fitness for binding NBS DNA” value: ≤ 0.2 for the first, ≤ 0.2 for the second.

LRPQ and SPVW cannot be ordered by “one-hybrid fitness for binding NBS DNA” value: ≤ 0.2 for the first, ≤ 0.2 for the second.

Going from QYQR to HTMN, the “one-hybrid fitness for binding NBS DNA” value falls from 0.493 to ≤ 0.2.

VTKF and IGCT cannot be ordered by “one-hybrid fitness for binding NBS DNA” value: ≤ 0.2 for the first, ≤ 0.2 for the second.

HCFR and PAGQ cannot be ordered by “one-hybrid fitness for binding NBS DNA” value: ≤ 0.2 for the first, ≤ 0.2 for the second.

ERPG and IDKG cannot be ordered by “one-hybrid fitness for binding NBS DNA” value: ≤ 0.2 for the first, ≤ 0.2 for the second.

QPPT and SHLP cannot be ordered by “one-hybrid fitness for binding NBS DNA” value: ≤ 0.2 for the first, ≤ 0.2 for the second.

WAPK and NLPK cannot be ordered by “one-hybrid fitness for binding NBS DNA” value: ≤ 0.2 for the first, ≤ 0.2 for the second.

QPQR and TFNP cannot be ordered by “one-hybrid fitness for binding NBS DNA” value: ≤ 0.2 for the first, ≤ 0.2 for the second.

ILRI and RIGQ cannot be ordered by “one-hybrid fitness for binding NBS DNA” value: ≤ 0.2 for the first, ≤ 0.2 for the second.

GALV and TTPD cannot be ordered by “one-hybrid fitness for binding NBS DNA” value: ≤ 0.2 for the first, ≤ 0.2 for the second.

VKRG and VQEC cannot be ordered by “one-hybrid fitness for binding NBS DNA” value: ≤ 0.2 for the first, ≤ 0.2 for the second.

NLPW and SQKC cannot be ordered by “one-hybrid fitness for binding NBS DNA” value: ≤ 0.2 for the first, ≤ 0.2 for the second.

NDDI and CPTG cannot be ordered by “one-hybrid fitness for binding NBS DNA” value: ≤ 0.2 for the first, ≤ 0.2 for the second.

CRSW and WNNC cannot be ordered by “one-hybrid fitness for binding NBS DNA” value: ≤ 0.2 for the first, ≤ 0.2 for the second.

GMRV and RIMH cannot be ordered by “one-hybrid fitness for binding NBS DNA” value: ≤ 0.2 for the first, ≤ 0.2 for the second.

AETE and NMTF cannot be ordered by “one-hybrid fitness for binding NBS DNA” value: ≤ 0.2 for the first, ≤ 0.2 for the second.

GPQM and RYIQ cannot be ordered by “one-hybrid fitness for binding NBS DNA” value: ≤ 0.2 for the first, ≤ 0.2 for the second.

CFRS and HYQN cannot be ordered by “one-hybrid fitness for binding NBS DNA” value: ≤ 0.2 for the first, ≤ 0.2 for the second.

RTWY and MIVG cannot be ordered by “one-hybrid fitness for binding NBS DNA” value: ≤ 0.2 for the first, ≤ 0.2 for the second.

HCYT and PDGS cannot be ordered by “one-hybrid fitness for binding NBS DNA” value: ≤ 0.2 for the first, ≤ 0.2 for the second.

RTWA and IEKR cannot be ordered by “one-hybrid fitness for binding NBS DNA” value: ≤ 0.2 for the first, ≤ 0.2 for the second.

Going from PNDK to QTKS, the “one-hybrid fitness for binding NBS DNA” value rises from ≤ 0.2 to 0.783.

PAQA and MRKS cannot be ordered by “one-hybrid fitness for binding NBS DNA” value: ≤ 0.2 for the first, ≤ 0.2 for the second.

LYEV and MSHR cannot be ordered by “one-hybrid fitness for binding NBS DNA” value: ≤ 0.2 for the first, ≤ 0.2 for the second.

NTME and AGDG cannot be ordered by “one-hybrid fitness for binding NBS DNA” value: ≤ 0.2 for the first, ≤ 0.2 for the second.

LLPC and NRAR cannot be ordered by “one-hybrid fitness for binding NBS DNA” value: ≤ 0.2 for the first, ≤ 0.2 for the second.

WRDS and HDPG cannot be ordered by “one-hybrid fitness for binding NBS DNA” value: ≤ 0.2 for the first, ≤ 0.2 for the second.

TLLG and VTDS cannot be ordered by “one-hybrid fitness for binding NBS DNA” value: ≤ 0.2 for the first, ≤ 0.2 for the second.

EIPR and WMFG cannot be ordered by “one-hybrid fitness for binding NBS DNA” value: ≤ 0.2 for the first, ≤ 0.2 for the second.

GMIV and MTDR cannot be ordered by “one-hybrid fitness for binding NBS DNA” value: ≤ 0.2 for the first, ≤ 0.2 for the second.

NVYA and PDEA cannot be ordered by “one-hybrid fitness for binding NBS DNA” value: ≤ 0.2 for the first, ≤ 0.2 for the second.

VDGS and DRKA cannot be ordered by “one-hybrid fitness for binding NBS DNA” value: ≤ 0.2 for the first, ≤ 0.2 for the second.

TMHA and HGHG cannot be ordered by “one-hybrid fitness for binding NBS DNA” value: ≤ 0.2 for the first, ≤ 0.2 for the second.

Going from RITR to SRNY, the “one-hybrid fitness for binding NBS DNA” value falls from 0.437 to ≤ 0.2.

CPKI and PLHL cannot be ordered by “one-hybrid fitness for binding NBS DNA” value: ≤ 0.2 for the first, ≤ 0.2 for the second.

DRFT and GAMT cannot be ordered by “one-hybrid fitness for binding NBS DNA” value: ≤ 0.2 for the first, ≤ 0.2 for the second.

Compared with QVCR, RVQL is lower in “one-hybrid fitness for binding NBS DNA” value: 0.361 for the first, ≤ 0.2 for the second.

ETNV and TQDM cannot be ordered by “one-hybrid fitness for binding NBS DNA” value: ≤ 0.2 for the first, ≤ 0.2 for the second.

GASN and NLLN cannot be ordered by “one-hybrid fitness for binding NBS DNA” value: ≤ 0.2 for the first, ≤ 0.2 for the second.

Compared with QCSA, QMNP is lower in “one-hybrid fitness for binding NBS DNA” value: 0.302 for the first, ≤ 0.2 for the second.

NNVM and SQTT cannot be ordered by “one-hybrid fitness for binding NBS DNA” value: ≤ 0.2 for the first, ≤ 0.2 for the second.

ANPK and QCNK cannot be ordered by “one-hybrid fitness for binding NBS DNA” value: ≤ 0.2 for the first, ≤ 0.2 for the second.

RPMM and QIYY cannot be ordered by “one-hybrid fitness for binding NBS DNA” value: ≤ 0.2 for the first, ≤ 0.2 for the second.

PDHS and WLFE cannot be ordered by “one-hybrid fitness for binding NBS DNA” value: ≤ 0.2 for the first, ≤ 0.2 for the second.

VLKE and QFGT cannot be ordered by “one-hybrid fitness for binding NBS DNA” value: ≤ 0.2 for the first, ≤ 0.2 for the second.

DFMV and NARS cannot be ordered by “one-hybrid fitness for binding NBS DNA” value: ≤ 0.2 for the first, ≤ 0.2 for the second.

QIFC and QLCH cannot be ordered by “one-hybrid fitness for binding NBS DNA” value: ≤ 0.2 for the first, ≤ 0.2 for the second.

IVKG and DEAR cannot be ordered by “one-hybrid fitness for binding NBS DNA” value: ≤ 0.2 for the first, ≤ 0.2 for the second.

FKLC and RCDL cannot be ordered by “one-hybrid fitness for binding NBS DNA” value: ≤ 0.2 for the first, ≤ 0.2 for the second.

CTNL and LRGV cannot be ordered by “one-hybrid fitness for binding NBS DNA” value: ≤ 0.2 for the first, ≤ 0.2 for the second.

HCVT and DSIR cannot be ordered by “one-hybrid fitness for binding NBS DNA” value: ≤ 0.2 for the first, ≤ 0.2 for the second.

VIQL and QNMT cannot be ordered by “one-hybrid fitness for binding NBS DNA” value: ≤ 0.2 for the first, ≤ 0.2 for the second.

CCDT and RDYM cannot be ordered by “one-hybrid fitness for binding NBS DNA” value: ≤ 0.2 for the first, ≤ 0.2 for the second.

ETDC and EIAQ cannot be ordered by “one-hybrid fitness for binding NBS DNA” value: ≤ 0.2 for the first, ≤ 0.2 for the second.

LDHD and QVAM cannot be ordered by “one-hybrid fitness for binding NBS DNA” value: ≤ 0.2 for the first, ≤ 0.2 for the second.

DVWC and QYRD cannot be ordered by “one-hybrid fitness for binding NBS DNA” value: ≤ 0.2 for the first, ≤ 0.2 for the second.

LVLA and RELG cannot be ordered by “one-hybrid fitness for binding NBS DNA” value: ≤ 0.2 for the first, ≤ 0.2 for the second.

LTVH and DCKG cannot be ordered by “one-hybrid fitness for binding NBS DNA” value: ≤ 0.2 for the first, ≤ 0.2 for the second.

QFVD and LEPA cannot be ordered by “one-hybrid fitness for binding NBS DNA” value: ≤ 0.2 for the first, ≤ 0.2 for the second.

AHDE and QFAH cannot be ordered by “one-hybrid fitness for binding NBS DNA” value: ≤ 0.2 for the first, ≤ 0.2 for the second.

ITLS and YCIT cannot be ordered by “one-hybrid fitness for binding NBS DNA” value: ≤ 0.2 for the first, ≤ 0.2 for the second.

First: RKAY
Second: TDEQ
The “one-hybrid fitness for binding NBS DNA” value of the first is higher: 0.221 for the first, ≤ 0.2 for the second.

KQRA and QDPA cannot be ordered by “one-hybrid fitness for binding NBS DNA” value: ≤ 0.2 for the first, ≤ 0.2 for the second.

VVKS and QCEL cannot be ordered by “one-hybrid fitness for binding NBS DNA” value: ≤ 0.2 for the first, ≤ 0.2 for the second.

GTPQ and QHAA cannot be ordered by “one-hybrid fitness for binding NBS DNA” value: ≤ 0.2 for the first, ≤ 0.2 for the second.

TTRP and QCIC cannot be ordered by “one-hybrid fitness for binding NBS DNA” value: ≤ 0.2 for the first, ≤ 0.2 for the second.

AHSQ and YWRR cannot be ordered by “one-hybrid fitness for binding NBS DNA” value: ≤ 0.2 for the first, ≤ 0.2 for the second.

TQHG and TFLE cannot be ordered by “one-hybrid fitness for binding NBS DNA” value: ≤ 0.2 for the first, ≤ 0.2 for the second.

KFYV and SLCQ cannot be ordered by “one-hybrid fitness for binding NBS DNA” value: ≤ 0.2 for the first, ≤ 0.2 for the second.

QPNC and AVWV cannot be ordered by “one-hybrid fitness for binding NBS DNA” value: ≤ 0.2 for the first, ≤ 0.2 for the second.

RYCW and INTG cannot be ordered by “one-hybrid fitness for binding NBS DNA” value: ≤ 0.2 for the first, ≤ 0.2 for the second.

HLRT and ANSF cannot be ordered by “one-hybrid fitness for binding NBS DNA” value: ≤ 0.2 for the first, ≤ 0.2 for the second.

With RHIS the “one-hybrid fitness for binding NBS DNA” value was ≤ 0.2.
